This passage reports binding signal results from paper PMC5836133.

The list shows a part of the results. At the low end of the ranking, values are background and their order means little.

This assay deals with T1, GST-NbGlk1(82-244).
T1 sequence: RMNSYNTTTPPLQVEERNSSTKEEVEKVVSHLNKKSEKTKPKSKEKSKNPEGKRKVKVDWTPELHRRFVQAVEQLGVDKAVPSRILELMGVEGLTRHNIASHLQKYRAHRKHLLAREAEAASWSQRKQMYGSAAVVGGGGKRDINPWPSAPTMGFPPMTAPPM
The assay can be described thus: protein-binding microarray.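 Also: rank-based score ranging −0.5 to +0.5 with E above 0.45 taken as significant binding.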 The conditions noted are these: NbGlk1 is a Golden2-like transcription factor of Nicotiana benthamiana; high values mean tight binding; most listed sequences are background and not binding sites; double strand, one strand shown.
The sequence AAGGCCCT registered a binding signal of -0.361 E-score. With ATGACTCA the figure was -0.0643 E-score; with AGGTTAAC, -0.0532 E-score; with ACTTAGCC, -0.181 E-score. With CACTTAAA the figure was -0.112 E-score. With AGCTGCGG the figure was -0.244 E-score.

For the sequence CAAGCCGA, the binding signal was -0.152 E-score. With ACGCACAC the figure was -0.0526 E-score. With ACGTTCTA the figure was 0.0763 E-score; with ACGTGTCT, -0.0184 E-score. With AACCCAAA the figure was -0.0522 E-score; with CACACCGG, -0.133 E-score; with AACCCGCG, -0.022 E-score. In the case of AACCAGCG, the binding signal was -0.0998 E-score. With AGATATGC the figure was 0.415 E-score; with AAAGGCGC, -0.132 E-score; with ACGCTCTG, -0.128 E-score. With AACGTAGT the figure was -0.0218 E-score; with ATATGTGA, 0.164 E-score; with ATCTAATA, 0.26 E-score. With ACGTTAGA the figure was 0.0229 E-score. Regarding AAGCTGTG, the binding signal is -0.139 E-score.

Sequence AAGTACTA registered a binding signal of 0.0583 E-score. With ATTTAGGA the figure was 0.0838 E-score.

Take AATCTGCG: the binding signal is 0.444 E-score. With AGCGAAAT the figure was 0.343 E-score; with ATAGTAGA, 0.201 E-score; with AAGCCGCA, -0.14 E-score.

As to AAGTGCAT, the binding signal is -0.0915 E-score. With CACAGCGG the figure was -0.0216 E-score.

As to AACGCAGC, the binding signal is -0.0481 E-score. With AATAAGAA the figure was 0.172 E-score; with ACGTCAAC, -0.103 E-score; with AGCGAACG, -0.187 E-score. With ATAGGGTG the figure was -0.047 E-score. With ATAGCGGG the figure was -0.162 E-score; with ATATAACG, 0.166 E-score; with ATGAAACG, 0.11 E-score. The sequence AGAAGGTG showed a binding signal of -0.0433 E-score.

For the sequence AATCAACG, the binding signal was determined as 0.247 E-score. With CAATACGC the figure was -0.0773 E-score; with ACGCATGC, -0.146 E-score; with AATAAAAT, 0.285 E-score.

Turning to ACGCGAAA, the binding signal worked out at 0.104 E-score. With AGGGGGAA the figure was 0.0279 E-score. With AGAGGAGC the figure was -0.278 E-score; with ATGACGAA, -0.0902 E-score; with CACCGCAG, -0.0367 E-score. With ATGTAGGG the figure was -0.0653 E-score; with AGAAAGAA, 0.0869 E-score; with ACGATACC, 0.0532 E-score. ACGCAGAC had a binding signal of -0.0686 E-score. With AAGCCATT the figure was -0.154 E-score; with ATTAAGAC, -0.0138 E-score.

With ACTGTCTA, the binding signal is -0.0303 E-score.

Regarding AGCACATA, the binding signal is 0.0373 E-score. With AAGGGCTA the figure was -0.102 E-score. With ATTGGTAG the figure was -0.000102 E-score; with AATTTAGT, 0.14 E-score. With ATTCGTAC the figure was 0.144 E-score; with ACTCGTCG, -0.172 E-score. Take AATATACC: the binding signal was 0.14 E-score. With CAACCTCA the figure was -0.0945 E-score; with AACCAGCA, 0.0442 E-score. With CACGACTG the figure was -0.101 E-score; with AGAGTGGA, 0.0598 E-score. With ACGAGTCC the figure was -0.249 E-score; with AGGGCGGC, -0.214 E-score. ATCAGAAA: the binding signal came to 0.272 E-score.

Consider ATTAGGTC, for which the binding signal was -0.0495 E-score. With AGCCGATC the figure was 0.0201 E-score.

In turn, AGAAAGGC registered a binding signal of -0.159 E-score. Consider AATACTAG, for which the binding signal worked out at 0.0371 E-score. With AGCCAAAA the figure was 3.22e-05 E-score. With CAATGCGC the figure was -0.116 E-score. Turning to AAGTAGCC, the binding signal was -0.207 E-score. With AGTAACAC the figure was -0.128 E-score; with AGTTGTGC, -0.0958 E-score; with AAAACTTC, -0.0204 E-score. For the sequence AAGCGCAG, the binding signal was -0.0537 E-score.

Consider ATGACGCG, for which the binding signal was -0.133 E-score. With ACCGAAGT the figure was -0.0945 E-score; with ACTTTTTC, 0.00712 E-score. With AATGAAAC the figure was 0.0492 E-score; with AACCAAGC, -0.0491 E-score.

The sequence AAAGGTGG registered a binding signal of -0.181 E-score.

In turn, AAACCTCG gave a binding signal of -0.0195 E-score. With ATTCCTAC the figure was 0.176 E-score; with AGTCAGCC, -0.279 E-score.

Sequence AGACCCCG had a binding signal of -0.193 E-score. With AGGAATCC the figure was 0.422 E-score; with AGGTTGGC, -0.206 E-score. With AGCACTAG the figure was -0.14 E-score; with AACGGTAG, -0.125 E-score.

The sequence CACGAGGC had a binding signal of -0.299 E-score.

In turn, AACTGTGG returned a binding signal of -0.0788 E-score. With ACTACTCC the figure was -0.0786 E-score; with AGACCATG, -0.182 E-score. With CAAGCCAA the figure was -0.138 E-score; with AATATGAT, 0.222 E-score; with AAATGTCT, -0.0382 E-score.

Sequence AATGACTG returned a binding signal of -0.0618 E-score. With ATGTGTGG the figure was -0.0679 E-score. With AGGAGACT the figure was -0.3 E-score; with ATGAGCTG, -0.102 E-score; with AAGGAGCT, -0.218 E-score. With ACGGACAT the figure was -0.155 E-score; with ACTTGACA, -0.0266 E-score; with AATGAAGA, 0.13 E-score.

Turning to AATTCCCC, the binding signal was determined as 0.225 E-score.

CAGAGGCA registered a binding signal of -0.117 E-score. With AGAGTAGC the figure was -0.169 E-score; with AAGATCTG, 0.362 E-score; with CAGCCTAA, -0.148 E-score. Sequence AAAGAATC registered a binding signal of 0.432 E-score. Sequence AGTCACGC returned a binding signal of -0.279 E-score. With ACGTTCCG the figure was -0.0344 E-score. With CAGAGGTC the figure was -0.302 E-score.

AGAGGCTA displayed a binding signal of -0.143 E-score. Sequence AGCTTTAA displayed a binding signal of -0.152 E-score. With AAGTCGCT the figure was -0.145 E-score; with AGGACAGG, -0.155 E-score. With CAAAGTGA the figure was 0.0633 E-score; with ACATATAG, -0.135 E-score. With AGCGACTG the figure was -0.178 E-score; with ATATACCA, 0.168 E-score; with ACATGATA, 0.198 E-score. The sequence ATCTTGGA yielded a binding signal of 0.257 E-score.

As for AGTTCTAC, the binding signal was -0.0788 E-score. AATCTTGA gave a binding signal of 0.377 E-score. With ATACCGGG the figure was 0.0149 E-score. For AACCAACG, the binding signal is -0.0567 E-score. With AGGGGCTA the figure was -0.192 E-score; with ACAGGTTG, -0.102 E-score; with AAGCGGGA, -0.0986 E-score. For ATGCTAAG, the binding signal came out at 0.0345 E-score. With AACGAGTT the figure was -0.0852 E-score; with CAACGCTG, -0.136 E-score. With CACACTAA the figure was -0.0296 E-score; with AACTGATT, 0.296 E-score; with AATACCAG, -0.0134 E-score. As to ATCGGATC, the binding signal stood at 0.275 E-score. With ATCAATTG the figure was 0.1 E-score.

On to AAATGAAG, for which the binding signal was 0.0114 E-score. With AGCACCAG the figure was -0.267 E-score; with ACTTTGCT, -0.0183 E-score; with AATTCCTG, 0.0736 E-score. In the case of ACGGAAAA, the binding signal worked out at 0.159 E-score. With AAAGCGGT, the binding signal was 0.00106 E-score. With AGGTGTCG the figure was -0.276 E-score; with AAAGTGAA, -0.0347 E-score; with CACTCGAG, -0.149 E-score. With AGGGAGAC the figure was -0.261 E-score; with ACCTGGGA, -0.296 E-score; with ACCACGCA, -0.185 E-score.

The sequence ATCAGGGC showed a binding signal of 0.00809 E-score. With ATGGCGAC the figure was -0.202 E-score.

Consider AACCCCGG, for which the binding signal was -0.287 E-score. With ATTCCCAC the figure was 0.332 E-score; with AGACGGCT, -0.292 E-score; with ACAAGACA, -0.151 E-score. With AGTTCCAC the figure was -0.283 E-score; with CACGGGGA, -0.11 E-score; with AACCCCGC, -0.172 E-score. With ATAACTGG the figure was -0.0397 E-score. Turning to CAAACTTG, the binding signal is -0.0833 E-score. With ACTGCTAA the figure was -0.000472 E-score.

In turn, AGTAGTTA registered a binding signal of 0.171 E-score.

In turn, ACATGTAG registered a binding signal of -0.0749 E-score. With CAAATCTA the figure was 0.412 E-score; with AGGCATTC, -0.196 E-score.

For AGGGCCCC, the binding signal was -0.222 E-score.
